From PubChem BioAssay AID1963576 (National Center for Advancing Translational Sciences (NCATS), 2024)
Among all 46,000 compounds or so, about 60 (0.1%) were called active. Roughly 3% stayed inconclusive and do not appear here. The call rests on the fitted dose curve; in most records, active means well fitted inhibition curve with a large enough effect; inconclusive means small, poorly fitted or top-dose-only effect; inactive means no such curve, though single readings can be large or run the other way. This is one part of the list.

Assay: Primary qHTS assay for Inhibitors of ovarian cancer metastasis using an organotypic tumor microenvironment (TME) model. Further: nearly all actives have a fitted effect of over 65% in size.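 On activity change, negative = inhibition: plate controls were DMSO wells for no effect and tomatine positive control wells for full effect.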
Settings: SKOV3ip1-GFP adhesion/invasion on 3D omental model, fluorescence; series mostly up to 45.8 µM; activity change, negative = inhibition: at the top concentration
Outline: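 Primary human omental fibroblast/mesothelial 3D culture pre-formed 48 h. SKOV3ip1-GFP cells added with compounds (0.36-46 umol/L), incubated 2 h RT/16 h 37 C, fixed; GFP cells quantified at 488/509 nm.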

SMILES	activity change, negative = inhibition	outcome
CC(C)(C)c1ccc(OCC(=O)Nc2ccc(S(=O)(=O)Nc3ncccn3)cc2)cc1	inactive: -6.39%	
COc1cc(NC(=O)CSc2nc3ccccc3nc2Cc2ccc(Cl)cc2)cc(OC)c1		inactive
COCCCNC(=O)CSc1nc2c(sc3ccccc32)c(=O)n1CCc1ccccc1	inactive: -17%	
Cc1nc2c(c(C)c1CCC(=O)NCc1ccccc1)c(=O)n(C)c(=O)n2C	inactive: 3.95%	
O=C(NCCCc1nc2ccccc2n1Cc1c(F)cccc1Cl)C1CCCCC1	inactive: 5.96%	
O=C(COc1ccccc1Cl)Nc1nnc(S(=O)(=O)N2CCCCCC2)s1	inactive: -2.6%	
CCOC(=O)COc1ccccc1C1C(C(=O)OC)=C(C)NC2=C1C(=O)c1ccccc12 (configuration not stated)	inactive: 3.11%	
Cc1nn(C)c2c1c(-c1ccccc1)cc(=O)n2CC(=O)Nc1ccccc1C(F)(F)F		inactive
COc1ccc(NCc2cc3cc4c(cc3n(CC(=O)Nc3cc(C)cc(C)c3)c2=O)OCO4)cc1	inactive: -17.6%	
COc1cccc(Nc2cc(C)nc3nc(-c4ccc(Cl)cc4)nn23)c1		inactive
N#Cc1c(N)n(-c2cccc(Cl)c2)c2nc3ccccc3nc12	inactive: 13%	
Cc1nn2c(=O)cc(COc3ccc(/C=C(\C#N)C(=O)Nc4ccc(F)cc4)cc3)nc2s1	inactive: 0.923%	
COc1ccc2c(c1)CC(C(=O)Nc1cc(Cl)ccc1C)CO2 (configuration not stated)		inactive
CCc1ccc(CNC(=O)C2Cc3cc(S(=O)(=O)N4CCCCCC4)ccc3N2C(C)=O)cc1 (configuration not stated)		inactive
CCOc1ccc(CNc2nc3nc(C)c(Cc4ccccc4)c(=O)n3[nH]2)cc1	inactive: -10.5%	
CCOc1ccc(-n2c(=O)c3c(C)c(C)sc3n(CC(=O)N(CC)Cc3ccccc3)c2=O)cc1	inactive: 2.87%	
CCC(C)n1ncn(-c2ccc(N3CCN(c4ccc(OC[C@H]5CO[C@](Cn6cncn6)(c6ccc(Cl)cc6Cl)O5)cc4)CC3)cc2)c1=O (some centres not stated)	inactive: -1.22%	
Cc1ccc(Cl)cc1NC(=O)Cc1ccc(-n2c(C)nc3cccnc32)cc1	inactive: 3.1%	
Cc1cn2c(=O)cc(COc3ccc(Cl)cc3)nc2s1		inactive
COc1cc(NC(=O)Nc2cccc(-c3noc(C)n3)c2)cc(OC)c1OC	inactive: -8.24%	
COc1cccc(C2CC(=O)N(c3ccc(F)cc3)C3=C2C(=O)OC3)c1OC (configuration not stated)		inactive
Cc1ccc(OCC(=O)Nc2ccc(Cl)c(-c3nc4ncccc4o3)c2)c(C)c1		inactive
Cc1ccc(C)c(C(=O)c2c(N)c(-c3nc(-c4ccc5c(c4)OCO5)cs3)c3ccccn23)c1	inactive: 4.94%	
Cc1cccc(NC(=O)C2CCC(CNS(=O)(=O)c3ccc(Br)s3)CC2)c1 (configuration not stated)		inactive

SMILES	activity change, negative = inhibition	outcome
COc1cc(C2c3c(oc4ccccc4c3=O)C(=O)N2c2ccccn2)cc(OC)c1OC (configuration not stated)		inactive
CCCc1nn2c(=O)cc(COC(=O)c3ccccc3NC(=O)c3cccs3)nc2s1		inactive
COc1ccc(N(Cc2cccs2)C(=O)c2ccc(OCC(C)C)cc2)cc1	inactive: -1.52%	
O=C(Nc1c(C(=O)Nc2ccc(F)cc2)oc2ccccc12)c1ccccc1F		inactive
Cn1c(=O)nc2n(-c3ccc(Cl)c(Cl)c3)c3cc(Cl)ccc3cc-2c1=O	inactive: -10.1%	
C[N+](C)([O-])CCNc1ccc(NCC[N+](C)(C)[O-])c2c1C(=O)c1c(O)ccc(O)c1C2=O	inactive: -14.7%	
Cc1ccc(C)c(NC(=O)CN2C(=O)COc3ccc(Cl)cc32)c1	inactive: -0.0812%	
CC1=C(C(=O)OCC2CCCCC2)C(c2ccccc2F)CC(=O)N1 (configuration not stated)	inactive: 42.4%	
Cc1ccc(C(C)C)c(OCC(=O)N2CCC(c3nc4ccccc4o3)CC2)c1	inactive: -5.81%	
Cc1nc2nc(SCC(=O)NCCc3ccccc3)nn2c(C)c1Cc1c(F)cccc1Cl		inactive
Cc1ccccc1CNS(=O)(=O)c1csc(C(N)=O)c1	inactive: 56.6%	
COc1ccc(C(=O)N(Cc2ccc(C(C)C)cc2)C2CCS(=O)(=O)C2)cc1 (configuration not stated)	inactive: -1.38%	
Cc1c(C2=CCN(S(=O)(=O)c3ccc(CC(C)C)cc3)CC2)c2ccccc2n1CC(=O)N1CCCC1	inactive: 1.58%	
Cc1nn(-c2ccc(N3CCOCC3)nn2)c(C)c1CCC(=O)NCc1ccc(OC(C)C)cc1	inactive: 9.02%	
CCOc1ccccc1C(=O)Nc1ccc2c(c1)N(C)C(=O)c1ccccc1S2		inactive
CCOc1ccc(NS(=O)(=O)c2ccc3[nH]c4c(c3c2)CCCC4)cc1	inactive: -2.1%	
Cc1nn2c(=O)cc(COC(=O)c3cccc(NC(=O)c4cccs4)c3)nc2s1	inactive: -12.4%	
Cc1cccc(N(C)S(=O)(=O)c2cc3c(cc2Cl)NC(=O)CO3)c1	inactive: 22.7%	
CCCSc1ncc(Cl)c(C(=O)Nc2sc3c(c2C(=O)NCCOC)CCCC3)n1		inactive
Cc1c(Cl)cccc1NC(=O)CSc1nc(=O)n(Cc2ccccn2)c2c1CCC2		inactive
COc1ccc(-c2cn3nc(N4CCC(C(=O)Nc5cccc(C)c5C)CC4)sc3n2)cc1	inactive: 4.61%	
COc1ccc(N(CC(=O)N2CCN(c3cccc(C)c3C)CC2)S(=O)(=O)c2c(C)noc2C)cc1		inactive
COc1ccc2nc(N(Cc3cccnc3)C(=O)c3ccc4c(c3)OCCO4)sc2c1		inactive
